Values joined by “and” are separate entries in the source; they are usually repeats but may differ in a detail not shown here. Identical values can stand only once.
Substrate: CC1=C(/C=C/C(C)=C/C=C/C(C)=C/C(=O)Nc2ccc(O)cc2)C(C)(C)CCC1
Experiment: Metabolism of 4-HPR by CYP3A4 supersomes
Type: in vitro ADME, human
Details: other: CYP3A4 supersomes; 4-HPR 0-20 µM, 3 h; 37.0 °C

B1: CYP3A4 (Homo sapiens) (protein)
chain: MALIPDLAMETWLLLAVSLVLLYLYGTHSHGLFKKLGIPGPTPLPFLGNILSYHKGFCMFDMECHKKYGKVWGFYDGQQPVLAITDPDMIKTVLVKECYSVFTNRRPFGPVGFMKSAISIAEDEEWKRLRSLLSPTFTSGKLKEMVPIIAQYGDVLVRNLRREAETGKPVTLKDVFGAYSMDVITSTSFGVNIDSLNNPQDPFVENTKKLLRFDFLDPFFLSITVFPFLIPILEVLNICVFPREVTNFLRKSVKRMKESRLEDTQKHRVDFLQLMIDSQNSKETESHKALSDLELVAQSIIFIFAGYETTSSVLSFIMYELATHPDVQQKLQEEIDAVLPNKAPPTYDTVLQMEYLDMVVNETLRLFPIAMRLERVCKKDVEINGMFIPKGVVVMIPSYALHRDPKYWTEPEKFLPERFSKKNKDNIDPYIYTPFGSGPRNCIGMRFALMNMKLALIRVLQNFSFKPCKETQIPLKLSLGGLLQPEKPVVLKVESRDGTVSGA
- Km: 2.8 ± 1.1 µM and 4.8 ± 1.2 µM
